These results are taken from PubChem BioAssay (NCI).

Values joined by “and” are separate entries in the source; they are usually repeats but may differ in a detail not shown here. Equal entries are not always repeated.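 Cultured in 96-well plates, cells were exposed to test compound for 48 hours across five concentrations. GI50 is the concentration that inhibits growth by half. TGI: total growth inhibition.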 Bounds are passed on as bounds.

The test system of the assay is NCI-H322M lung. Description: NCI tumour cell line growth inhibition, 48 h.
For the molecule `Fc1ccc(C(OCCN2CCN(CCCCl)CC2)c2ccc(F)cc2)cc1`, the TGI was above 100 µM.
`C=C(C)C(O)CCC1(C)C=Cc2c(c(C)cc3c2[nH]c2ccccc23)O1` (configuration not stated): the GI50 is 7.87 µM; the TGI is 25 µM and 20.4 µM.
For the molecule `CC1(C)CC(C2=NCCO2)CC(C)(C)N1`, the TGI was above 100 µM.
The molecule `CCN(CC)c1c(C(=O)/C=C/c2ccc(Cl)cc2)c(-c2ccccc2)nn(C)c1=O` displayed a TGI of 4.32 µM.
The same measure, in the same setting: as for `CCOC(=O)C12CCCC1(O)N(NC(=O)OC(C)(C)C)C(C)=C2C(=O)OC` (configuration not stated), the figure is above 100 µM; as for `COc1ccc(/C=C2\NC(=S)N(/C=C3\C(=O)Oc4ccccc4C3=O)C2=O)cc1OC`, above 100 µM.
Still for that read-out and setting: as for `BrC1=CCC23CC=C(Br)[C@H]4CC2(COC3)C[C@@H]1O4` (some centres not stated), the figure is above 100 µM; as for `COC(=O)NC(=O)c1cn(C2OC(CO)C(O)C2O)c(=O)[nH]c1=O` (configuration not stated), above 100 µM.
For `COc1cc(C(O)CCBr)c(OC)cc1C` (configuration not stated), the TGI is above 100 µM.
As to `O.O.[NH-]C1(C(=O)O)CCCC1.[NH-]C1(C(=O)O)CCCC1.[Ni+2]`, the TGI was above 100 µM.
The molecule `C[C@]12CC[C@@H]3c4ccc(O)cc4CC[C@H]3[C@@H]1CC[C@@H]2OP(=O)(O)O` displayed a TGI above 100 µM.
The same measure, in the same setting: as for `CSC(=Nc1nnc(-c2ccc([N+](=O)[O-])cc2)s1)SC`, the figure is above 100 µM; as for `O=C(O)C1=C(O)C(C(=O)O)C23CCCCCCCCCCC12C(C(=O)O)C(O)=C3C(=O)O` (configuration not stated), above 100 µM.
In turn, `CCOC(=O)c1nnsc1NC(=O)Nc1ccc(Cc2ccc(NC(=O)Nc3snnc3C(=O)OCC)cc2)cc1` displayed a TGI above 100 µM.
`CCOc1cccc(/C=N/N=C2\C(=O)Nc3c(Cl)cc(Cl)cc32)c1O` yielded a TGI above 100 µM.
Same read-out and setting: as for `O=[N+]([O-])c1c(F)c(F)c2c(c1F)Nc1ccccc1S2`, the figure is 13.5 µM; as for `O=C(O)CCCSC(=O)Nc1ccc(N=Nc2ccccc2)cc1`, above 100 µM; as for `Cc1ccc(NCC(=O)N2CC(=O)Nc3ccccc32)c(C)c1`, above 100 µM.
`COC1=C(N)C(=O)c2nc(C)ccc2C1=O`: the TGI turned out to be 11.6 µM.
In turn, `N#CC1(C#N)C2(c3ccccc3)OC(c3ccccc3)(c3cc4ccccc4cc32)C1(C#N)C#N` had a TGI of 31 µM.
Consider `O=C(c1ccccc1)c1ccccc1-c1ccccc1`, for which the GI50 was 9.33 µM and the TGI was above 100 µM.
On to `O=C1C(N2CCN(c3ccccn3)CC2)=C(Cl)C(=O)c2ncccc21`, for which the TGI was above 10 µM.
Regarding `O=C(O)CN(CC(=O)O)Cc1cc(C#Cc2ccc(C#Cc3ccccc3)cc2)cc(CN(CC(=O)O)CC(=O)O)n1`, the TGI is above 94.2 µM.
On the same count and under the same terms, to `C[C@@]1(O)C[C@@H](N2C(=O)O[C@@H](c3ccccc3)[C@H]2c2ccccc2)[C@@H]1COCc1ccccc1` belongs above 100 µM; to `CC12O[C@]3([C@H](C(=O)N4CCOC43C)[C@H]1Cl)[C@H]1O[C@H]12` (some centres not stated), above 100 µM; to `Cc1ccc2nc(Cl)c(/C=N/N3C(=O)/C(=C/c4cccc([N+](=O)[O-])c4)N=C3c3ccccc3)cc2c1`, above 100 µM.
For the molecule `C[C@]12CC[C@@H]3c4ccc(OC(=O)N(CCCl)CCCl)cc4CC[C@H]3[C@@H]1CC[C@@H]2O`, the GI50 is 4.4 µM; the TGI was 32 µM and 9.7 µM.
Molecule `CC1(C)C2C=C(CCN3CCOCC3)CC1C2` (configuration not stated) yielded a TGI above 100 µM.
`CN1CCc2c3n(c4cc(Br)ccc24)[C@H](O)CCCC31` (some centres not stated) displayed a TGI above 10 µM.
Molecule `CC(C)=CC1C[C@H](C2CC=C3C2(C)CCC2[C@@]3(C)C(=O)CC3[C@]2(C)C=CC(=O)[C@]3(C)CO)CO1` (some centres not stated) registered a TGI of 47.6 µM.
With `O=C(c1ccccc1)n1c(Cc2ccccc2)nc2cc(C34CC5CC(CC(C5)C3)C4)ccc21`, the TGI is above 100 µM.
`COC12C=C/C(=C(/C(=O)OCc3cncnc3)C(=O)CCCCCCCCC3(OC)C=C/C(=C(/C(=O)OCc4cncnc4)C(=O)CCCCCCCC1)O3)O2`: the GI50 was 0.801 µM and the TGI is 1.92 µM.
Consider `CCCCCCCCCCCc1nnc(N)o1`, for which the TGI is above 100 µM.
Same read-out and setting: to `CN(/N=C/c1cccc2cccnc12)c1ccc([N+](=O)[O-])cc1[N+](=O)[O-]` belongs above 100 µM.
`COC(=O)C(Cc1ccccc1)NP(=O)(O)OCC1OC(n2cc(Br)c(=O)[nH]c2=O)CC1O` (configuration not stated) registered a TGI above 100 µM.
Regarding `COc1ccc(/C=C2\CCC(CNc3ccc(S(N)(=O)=O)cc3)C2=O)cc1` (configuration not stated), the TGI was above 100 µM.
Molecule `O=c1cc(-c2ccccc2)c2ccccc2[nH]1` came in with a TGI above 100 µM.
`N#C[C@@H](c1nc2ccccc2s1)c1ncccc1[N+](=O)[O-]` registered a TGI above 31.6 µM.
The same measure, in the same setting: as for `COC(=O)C1=C(C)NC(C)=C(C(=O)OC)C1c1ccccc1NO`, the figure is above 100 µM.
`N=C1C(c2nc3ccccc3s2)=C(O)CN1c1ccc(F)c(Cl)c1`: the GI50 was 25.6 µM and the TGI was above 100 µM.
Molecule `C=C(CCOC)CCC1CCCCC(=C)[C@H]1OC(C)=O` (some centres not stated) displayed a TGI above 100 µM.
Molecule `CC1CCC2(O)C3(C)CC4(O)OC2(C1O)C1(O)C3(O)C(OC(=O)c2ccc[nH]2)C(O)(C(C)C)C41C` (configuration not stated) yielded a TGI above 100 µM.
In the case of `N=C(N)C1CN(CCCCCCCCCCN2CC(C(=N)N)C(=O)NC2=O)C(=O)NC1=O` (configuration not stated), the TGI is above 10 µM.
In turn, `Cc1cc(CC(=O)NCCO)n(CCO)c(=O)c1` came in with a TGI above 100 µM.
Regarding `O=c1cc(-c2ccccc2)[nH]c2ccc(N3CCOCC3)cc12`, the TGI was above 100 µM.
As to `CCOC(=O)/C(C=Nc1ccc(-c2nc3ccccc3[nH]2)cc1)=C(/C)O`, the GI50 is 15.4 µM and the TGI is above 50 µM.
In the case of `CC(=O)OCC1=C(C(=O)O)N2C(=O)C(NC(=O)CSc3ccncc3)C2SC1` (configuration not stated), the TGI was above 100 µM.
Turning to `COC(=O)C1CC23CCCN4CCC5(c6ccccc6N(C=O)C15CC2)C43` (configuration not stated), the TGI is above 100 µM.
`COC(=O)[C@H](Cc1ccccc1)NP(=O)(OCCC#N)OCC1OC(n2cc(C)c(=O)[nH]c2=O)CC1N=[N+]=[N-]` (some centres not stated) displayed a TGI above 100 µM.
With `COC(=O)c1ccc(-c2nc3cc(Cl)c(Cl)cc3nc2C#N)cc1`, the GI50 is above 100 µM and the TGI was above 100 µM.
`CCOC(=O)c1c(C)nc2c(c1N)CC(=O)N2Cc1ccc(OC)cc1`: the GI50 is above 100 µM and the TGI is above 100 µM.
As to `O=C(O)CCC(=O)N1c2ccccc2CC1c1c[nH]c2ccccc12` (configuration not stated), the TGI was above 100 µM.
`O=[N+]([O-])C(=C(Nc1ccccc1)Nc1ccccc1)/C(Cl)=C(\Cl)[N+](=O)[O-]` displayed a TGI of 28.1 µM.
`CCN1C(=O)N(CC)C2C1NN=c1s/c(=C\c3cccc(F)c3)c(=O)n12` (configuration not stated): the GI50 is 3.27 µM and the TGI is above 100 µM.
`C[C@@]1(C(=O)O)CCC[C@]2(C)C1CC[C@@]13CC(=O)[C@@](CO)(CC[C@]12O)C3` (some centres not stated): the GI50 was 85.3 µM and the TGI is above 100 µM.
Molecule `COc1ccc(-c2cc3c(c4cc(OC)ccc24)C(=O)OC3=O)cc1` yielded a TGI above 100 µM.
Consider `Cc1cccc(/C=C/c2c(C(=O)/C=C/c3ccccc3)c(C)nc3ccccc23)c1`, for which the GI50 is 1.53 µM and the TGI turned out to be 2.92 µM.
As for `CN1CCN(C(=S)N(C(=O)c2ccc(Cl)cc2)c2ccccc2)CC1`, the TGI was above 100 µM.
`CC(Cc1ccccc1)Nc1ncnc2c1ncn2C1OC(CO)CC1O` (configuration not stated) had a TGI above 100 µM.
Turning to `C=C[C@@]1(C)CC[C@@H]2[C@@]3(C1)O[C@H]3CC1[C@](C)(C(=O)OC)CCC[C@@]12C` (some centres not stated), the TGI was determined as 32.1 µM.
`O=C(O)c1n[nH][nH]c1=S` had a TGI above 100 µM.
The molecule `O=C(Nc1ccc([As](=O)(O)O)cc1)Nc1cccc(Cl)c1Cl` registered a TGI above 100 µM.
Regarding `CN1Cc2cc3cc4c(cc3nc2N(C)C1)OCCO4`, the TGI is above 100 µM.
The molecule `CCN(C(=O)N[C@@H](Cc1ccccc1)C(=O)N[C@@H](CC(C)C)C(=O)OC)c1ccccc1` yielded a TGI above 100 µM.
With `CC1=NN(c2cccc(Cl)c2)C(=N/c2nc3ccccc3s2)/C1=C\c1ccc(Cl)cc1`, the TGI was above 100 µM.
`COC(=O)CC1C[C@H](C#N)N(C(=O)c2ccccc2)C[C@@H]1CC[N+](=O)[O-]` (some centres not stated): the TGI is above 100 µM.
In the case of `CN(O)C(=O)SCC(NC(=O)CCC(N)C(=O)O)C(=O)NCC(=O)O` (configuration not stated), the GI50 is above 2000 µM and the TGI is above 2000 µM.
Consider `CCOC(=O)NC(Nc1ncccn1)(C(=O)OCC)C(F)(F)F` (configuration not stated), for which the TGI is above 100 µM.
Regarding `CC(C)Cn1cnc2c(SCc3ccc(Cl)cc3Cl)nc(N)nc21`, the TGI is above 100 µM.
As for `CSc1nc(NC2OCC(O)C(O)C2O)c(N)c(=O)[nH]1` (configuration not stated), the TGI is above 100 µM.
For `Cc1ccc(S(=O)(=O)N2CCC(=O)c3cc(Br)ccc32)cc1`, the TGI is above 100 µM.
`COc1ccc(CCCCl)c(C2=NCCc3cc(OC)c(OC)cc32)c1`: the TGI was above 100 µM.
`CCCCCC(C/C=N/N(C)C)C(O)(C(F)(F)F)C(F)(F)F` (configuration not stated) showed a TGI above 100 µM.
In turn, `O=C1CC(O)CC(=O)C1=C(O)CCCCCCCCCCc1ccccc1` (configuration not stated) returned a TGI above 100 µM.
For `Cc1c[n+](=O)c2ccccc2n1[O-]`, the TGI is above 100 µM.
With `CCN1CCC(O)(c2ccc(Oc3ccccc3)cc2)C(C(=O)c2ccc(Oc3ccccc3)cc2)C1` (configuration not stated), the TGI is 26.5 µM.
The molecule `CNC(=O)Nc1nc2ccc([N+](=O)[O-])cc2[nH]1` had a TGI above 100 µM.
For the molecule `COc1cc(/C=C\c2cc(OC)c(OC)c(OC)c2)cc(NC(=O)/C=C/c2cc(OC)c(OC)c(OC)c2)c1OC`, the GI50 was above 100 µM and the TGI was above 100 µM.
Regarding `CC1=C(C(=O)Nc2cc(=O)n(C)c(=O)n2C)C(c2ccco2)C(C(=O)Nc2cc(=O)n(C)c(=O)n2C)=C(C)N1`, the TGI was above 100 µM.
In the case of `Clc1nc(Cl)c2ncn(CC3(Cn4cnc5c(Cl)nc(Cl)nc54)COC3)c2n1`, the GI50 is 1.45 µM and the TGI was 2.77 µM.
With `CCc1cccc(C(C)(C)C)c1NC(=S)N/C=C(/C#N)C(N)=O`, the TGI is above 100 µM.
On to `CN(CCNC(=O)c1nn(-c2ccccc2)c2c1Cc1ccccc1-2)CCNC(=O)c1nn(-c2ccccc2)c2c1Cc1ccccc1-2`, for which the TGI is 5.96 µM.
On the same count and under the same terms, as for `OCCOCCN1CCN(CCCN2c3ccccc3Sc3ccc(C(F)(F)F)cc32)CC1`, the figure is 25.8 µM.
In turn, `O=C(NNC(=S)Nc1ccccc1)c1cc(-c2ccccc2)nc2ccccc12` displayed a TGI of 69.6 µM.
`CN(Cc1ccccc1)C(=NC#N)N(Cc1ccccc1)Cc1ccccc1` gave a TGI above 100 µM.
As for `O=C(O)c1cc(CC2Cc3cc4c(cc3C2=O)CCC4)cc2c1CCC2` (configuration not stated), the TGI is above 100 µM.
On to `CC1(C)C2CCC13C(=O)C1OC3(C2)C2C(=O)c3cc4ccccc4cc3C(=O)C12` (configuration not stated), for which the GI50 is 8.25 µM and the TGI turned out to be 84.2 µM.
